Assay results from PubChem BioAssay AID504333 (National Center for Advancing Translational Sciences (NCATS), 2011).
Where “and” joins values, the source holds several entries; their conditions need not be identical. Equal entries are not always repeated. Hit rate of the full screen: of about 360,000 compounds, about 16,000 (4.4%) were called active. The shares of active, inactive and inconclusive entries below differ from those in the screen. The call rests on the fitted dose curve; in most records, active means well fitted inhibition curve with a large enough effect; inconclusive means small, poorly fitted or top-dose-only effect; inactive means no such curve, though single readings can be large or run the other way. Where the call is inconclusive, the potency comes from a doubtful curve fit.

What follows are molecules tested against Bromodomain adjacent to zinc finger domain protein 2B (Homo sapiens) (UniProt Q9UIF8) (assay: qHTS Assay for Inhibitors of BAZ2B). Conditions: AlphaScreen BAZ2B-H3K14Ac peptide displacement; series mostly up to 114 µM.
Chain of UniProt Q9UIF8 (Q9UIF8 whole entry, looked up, the tested form may be a part): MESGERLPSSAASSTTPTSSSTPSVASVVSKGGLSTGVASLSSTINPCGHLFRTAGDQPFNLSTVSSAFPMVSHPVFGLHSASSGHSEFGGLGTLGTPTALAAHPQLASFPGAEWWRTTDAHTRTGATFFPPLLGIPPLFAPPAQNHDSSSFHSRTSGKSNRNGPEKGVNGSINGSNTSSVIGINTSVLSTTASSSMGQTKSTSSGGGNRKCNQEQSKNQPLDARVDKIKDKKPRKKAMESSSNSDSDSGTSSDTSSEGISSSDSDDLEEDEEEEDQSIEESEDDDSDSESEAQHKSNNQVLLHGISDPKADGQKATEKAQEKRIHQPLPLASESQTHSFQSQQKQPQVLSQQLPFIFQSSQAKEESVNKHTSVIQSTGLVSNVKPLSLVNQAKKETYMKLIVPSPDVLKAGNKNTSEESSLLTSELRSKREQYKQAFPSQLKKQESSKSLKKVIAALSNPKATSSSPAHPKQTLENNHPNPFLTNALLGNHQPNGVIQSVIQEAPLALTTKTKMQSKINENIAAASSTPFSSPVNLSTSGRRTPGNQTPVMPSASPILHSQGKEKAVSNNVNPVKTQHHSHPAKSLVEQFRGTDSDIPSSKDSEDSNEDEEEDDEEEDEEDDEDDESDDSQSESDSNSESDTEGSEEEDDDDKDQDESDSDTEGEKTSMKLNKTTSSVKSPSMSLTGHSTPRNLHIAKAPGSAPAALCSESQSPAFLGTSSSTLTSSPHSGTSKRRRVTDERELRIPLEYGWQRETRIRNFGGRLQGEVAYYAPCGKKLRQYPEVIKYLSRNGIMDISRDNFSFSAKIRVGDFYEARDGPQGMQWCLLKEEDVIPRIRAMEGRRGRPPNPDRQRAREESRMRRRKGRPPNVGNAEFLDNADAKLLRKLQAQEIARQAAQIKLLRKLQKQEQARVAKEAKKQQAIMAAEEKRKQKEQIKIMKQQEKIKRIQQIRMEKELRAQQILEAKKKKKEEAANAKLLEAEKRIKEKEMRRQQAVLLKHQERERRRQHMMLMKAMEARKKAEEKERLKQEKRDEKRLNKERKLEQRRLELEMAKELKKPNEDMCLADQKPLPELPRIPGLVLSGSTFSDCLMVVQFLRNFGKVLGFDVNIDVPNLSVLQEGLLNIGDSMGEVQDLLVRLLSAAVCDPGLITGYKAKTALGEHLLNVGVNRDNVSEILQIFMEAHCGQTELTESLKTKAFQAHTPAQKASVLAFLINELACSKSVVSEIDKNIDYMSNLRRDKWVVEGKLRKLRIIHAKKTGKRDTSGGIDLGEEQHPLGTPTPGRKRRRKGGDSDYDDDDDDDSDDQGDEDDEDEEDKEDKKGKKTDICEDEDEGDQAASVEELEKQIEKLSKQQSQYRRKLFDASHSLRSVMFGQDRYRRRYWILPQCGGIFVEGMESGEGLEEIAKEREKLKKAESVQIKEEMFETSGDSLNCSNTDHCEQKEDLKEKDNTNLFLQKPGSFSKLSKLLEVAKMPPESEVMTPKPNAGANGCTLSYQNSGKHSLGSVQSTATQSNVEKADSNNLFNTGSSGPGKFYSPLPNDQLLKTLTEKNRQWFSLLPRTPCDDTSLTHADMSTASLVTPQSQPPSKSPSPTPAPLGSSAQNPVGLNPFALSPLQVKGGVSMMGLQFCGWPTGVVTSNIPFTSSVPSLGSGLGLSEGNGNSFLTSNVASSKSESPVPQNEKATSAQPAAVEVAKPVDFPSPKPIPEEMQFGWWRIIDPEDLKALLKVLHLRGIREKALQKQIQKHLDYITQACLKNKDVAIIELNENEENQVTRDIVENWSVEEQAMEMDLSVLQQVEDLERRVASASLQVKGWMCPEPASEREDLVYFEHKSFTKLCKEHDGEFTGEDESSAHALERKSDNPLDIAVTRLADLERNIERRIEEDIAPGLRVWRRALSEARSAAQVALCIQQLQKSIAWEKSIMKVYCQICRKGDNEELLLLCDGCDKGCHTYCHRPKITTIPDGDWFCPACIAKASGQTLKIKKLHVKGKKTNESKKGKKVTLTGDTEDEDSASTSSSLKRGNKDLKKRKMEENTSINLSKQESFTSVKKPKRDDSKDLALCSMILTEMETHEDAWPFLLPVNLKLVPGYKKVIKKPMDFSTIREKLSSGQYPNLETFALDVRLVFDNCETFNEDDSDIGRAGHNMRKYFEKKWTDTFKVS
Procedure, shortened: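 AlphaScreen displacement of biotin-H3(5-23)K14Ac peptide (50 nM final) from BAZ2B (50 nM final) in PBS pH 7.4, 0.01% Tween-20; complex preformed 30 min RT, then compounds (top 110 uM) 30 min RT, beads 20 min dark.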
Further: nearly all actives have a fitted effect of over 60% in size.
Potency means the concentration at half of the fitted maximal effect; tags describe the fitted curve by direction and shape.

Row | Structure (SMILES) | Potency
1 | Cc1ccc(Cc2c[nH]c(=S)s2)cc1 | inconclusive: 79.4 µM [inhibitor, partial curve]
2 | CCOc1ccc(CC(=O)NCC(=O)NCc2cc(=O)n(C)c(=O)n2C)cc1 | inactive
3 | O=C(NC(=S)Nc1ccc(S(=O)(=O)N2CCCCC2)cc1)c1cccs1 | inconclusive: 79.4 µM [inhibitor, single point]
4 | O=C(Cc1cccs1)NC1(C(=O)NC2CCCC2)CCCCC1 | inactive
5 | CCc1ccc(NC(=O)/C(C#N)=C/c2cn(CC(=O)O)c3ccccc23)cc1 | inconclusive: 79.4 µM [inhibitor, single point]
6 | CC1CCN(C(c2cccs2)c2nnnn2Cc2ccccc2)CC1 (stereo not given) | inconclusive: 11.2 µM [inhibitor, single point]
7 | O=C(Nc1ccc(N2CCOCC2)cc1N1CCOCC1)c1cccc([N+](=O)[O-])c1 | inconclusive: 3.98 µM [inhibitor, single point]
8 | Cc1ccc(/C=C/C(=O)Nc2ccc(Cl)cc2Cl)cc1 | inactive
9 | Cc1ccc(-n2cc(C(=O)OCc3ccc(Cl)cc3)c3ccccc3c2=O)cc1 | inactive
10 | CC1CC(=O)N(c2ccc(NCc3ccc(Cl)cc3)c([N+](=O)[O-])c2)C1=O (stereo not given) | inconclusive: 20 µM [inhibitor, full curve]
11 | O=C1NC(=S)N(C(=O)c2ccc(F)cc2)/C1=C/c1ccccc1 | active: 44.7 µM
12 | CCN(CC)c1cccc(OC2=NS(=O)(=O)c3ccccc32)c1 | active: 56.2 µM
13 | Cc1ccnc(NC(=O)/C=C/c2ccccc2[N+](=O)[O-])c1 | active: 56.2 µM
14 | CCS(=O)(=O)NCCCc1ccccc1 | inactive
15 | O=C(c1ccco1)N(CCC(c1ccccc1)c1ccco1)Cc1ccccc1 (stereo not given) | active: 50.1 µM
16 | CCOc1cc2[nH]c(=O)n(CCCN3CCN(c4ccc(OC)cc4)CC3)c(=O)c2cc1OCC | inconclusive: 39.8 µM [inhibitor, partial curve]
17 | Cc1ccc(CNC(=O)CN2C(=O)COc3ccc(S(=O)(=O)N4CCC(C)CC4)cc32)cc1 | inactive
18 | COC(=O)C1CC(O)CN1C(=O)NC1CCCCC1 (stereo not given) | inconclusive: 89.1 µM [inhibitor, single point]
19 | CCCCOC(=O)c1ccc(OC(=O)N2CCOCC2)cc1 | inactive
20 | O=C1C2C3C=CC(CO)(O3)C2C(=O)N1c1ccccc1-c1ccccc1 (stereo not given) | inactive
21 | CCc1ccccc1NC(=O)c1ccc(-c2csc(C)n2)cc1 | inconclusive: 89.1 µM [inhibitor, single point]
22 | COc1cc(-c2nc(C)c(C(C)=O)n2O)ccc1OCC(=O)Nc1ccc(F)cc1 | inconclusive: 89.1 µM [inhibitor, single point]
23 | COc1ccc(-c2cc(C(=O)Nc3cc(OC)cc(C(=O)Nc4cccc(C(F)(F)F)c4)c3)[nH]n2)cc1 | inconclusive: 89.1 µM [inhibitor, single point]
24 | Cc1cc(OC(=O)c2ccccc2Br)c([N+](=O)[O-])c(=O)[nH]1 | inconclusive: 89.1 µM [inhibitor, single point]
25 | CCN(CC)S(=O)(=O)c1cccc(C(=O)Nc2nnc(C)s2)c1 | inactive

Row | Structure (SMILES) | Potency
26 | CCOC(=O)c1nc(NNC(=O)c2ccc([N+](=O)[O-])cc2)sc1C | inconclusive: 44.7 µM [inhibitor, partial curve]
27 | O=C(CSc1ccc2ccccc2c1)NCCCN1CCCC1=O | inactive
28 | CNCc1ccc(OCc2ccccc2)c(OC)c1 | inactive
29 | COc1ccc(-n2c(C)cc(/C=C3\SC(=O)NC3=O)c2C)cc1 | inactive
30 | CCn1c(N2CCN(Cc3ccc([N+](=O)[O-])cc3)CC2)nc2ccccc21 | inconclusive: 89.1 µM [inhibitor, single point]
31 | Oc1ccccc1N=Cc1c(O)ccc2ccccc12 | active: 11.2 µM
32 | C/C(=N/NC(=O)c1cc(-c2ccccc2)nc2c(Cl)cccc12)c1cccnc1 | inactive
33 | CCOc1ccc(N=Nc2c(=O)[nH]n3c(=O)cc(C)[nH]c23)cc1 | active: 50.1 µM
34 | COc1ccc(C(=O)NNC(=O)CSc2nnc(C)n2C)cc1 | inconclusive: 1.12 µM [inhibitor, full curve, poor fit]
35 | CCCn1c(C)cc(C(=O)COC(=O)c2nccnc2N)c1C | inconclusive: 79.4 µM [inhibitor, partial curve]
36 | COc1cc(NS(=O)(=O)c2ccc(C)c(C)c2)c(OC)cc1Cl | inactive
37 | CCN(CC(=O)Nc1c(F)cccc1F)C(=O)c1ccccn1 | inactive
38 | CC(NC(=O)C1CCN(C(=O)N2CCOc3ccccc32)CC1)c1ccccc1 (stereo not given) | inconclusive: 50.1 µM [inhibitor, partial curve]
39 | Cc1nc2ccc(NC(=S)N3CCOCC3)cc2nc1C | inactive
40 | CCC(NC(=S)NCc1ccc(F)cc1)c1ccc(C(C)C)cc1 (stereo not given) | inactive
41 | CCN(CC)S(=O)(=O)c1ccc(OC)c(NC(=O)Cn2cnc3c2c(=O)n(C)c(=O)n3C)c1 | inconclusive: 6.31 µM [inhibitor, full curve, poor fit]
42 | CCc1ccc(Nc2ccc(C(=O)O)cc2[N+](=O)[O-])cc1 | inconclusive: 50.1 µM [inhibitor, partial curve]
43 | CC(=O)N/C(=C/C(C)C)c1ccccc1 | inconclusive: 89.1 µM [inhibitor, single point]
44 | Cc1n[nH]c(=O)nc1N/N=C/c1ccco1 | active: 25.1 µM
45 | Fc1ccc(/C=N/NC(=S)Nc2cccnc2)cc1 | inconclusive: 100 µM [inhibitor, partial curve]
46 | O=C(/C=C/c1ccco1)NC1CCCC1 | inconclusive: 79.4 µM [inhibitor, single point]
47 | COc1cc([N+](=O)[O-])ccc1NC(=O)N1CCC2(CC1)Nc1cc(F)ccc1-n1cccc12 | inactive
48 | CC1CCN(c2nc3c(S(=O)(=O)c4cccc(Cl)c4)nnn3c3ccsc23)CC1 | inconclusive: 89.1 µM [inhibitor, single point]
49 | Cc1[nH]n2cnnc2c(=O)c1Br | inconclusive: 89.1 µM [inhibitor, single point]
50 | CCOC(=O)Cc1nnc(-c2ccccc2)o1 | inconclusive: 89.1 µM [inhibitor, single point]

Row | Structure (SMILES) | Potency
51 | COc1ccc(N2CCN(CC(O)COCc3ccccc3)CC2)cc1 (stereo not given) | active: 56.2 µM
52 | CN(C)c1ccc(N=Nc2ccccc2C(=O)OCC(=O)Nc2ccccc2C(F)(F)F)cc1 | active: 10 µM
53 | Oc1ccc(C2=Nn3c(nnc3-c3ccco3)SC2)cc1O | inconclusive: 89.1 µM [inhibitor, single point]
54 | CCn1c(Cc2ccccc2)nnc1SCC(=O)Nc1ccc(OC)cc1 | inactive
55 | CCCN1CCC(=NNc2ccc(S(=O)(=O)N(CC)CC)cc2[N+](=O)[O-])CC1 | inconclusive: 50.1 µM [inhibitor, partial curve]
56 | COc1ccc(S(=O)(=O)NNC(=O)c2ccc([N+](=O)[O-])cc2)cc1 | inconclusive: 100 µM [inhibitor, single point]
57 | CCOC(=O)c1ccc(NC(=O)C2CCCN(c3cnccn3)C2)cc1 (stereo not given) | inconclusive: 89.1 µM [inhibitor, single point] and inconclusive: 50.1 µM [inhibitor, partial curve]
58 | COc1ccc(N2CCN(CNC(=O)c3ccccc3)CC2)cc1 | inactive
59 | O=C(O)c1ccc(N/N=C/c2c[nH]c3ccccc23)cc1 | inconclusive: 70.8 µM [inhibitor, single point]
60 | COc1ccc(NC(=O)CN2C(=O)CSc3ncccc32)cc1 | inconclusive: 89.1 µM [inhibitor, single point]
61 | Cc1ccc(NC(=O)c2ccc(S(=O)(=O)N3CCOCC3)cc2)nc1 | inconclusive: 89.1 µM [inhibitor, single point]
62 | CC(=O)c1sc2nsc(SCCN3CCCC3)c2c1N | inconclusive: 89.1 µM [inhibitor, single point]
63 | CN(NC1OC(=O)c2ccccc21)c1ccc(C(F)(F)F)cc1[N+](=O)[O-] (stereo not given) | inconclusive: 79.4 µM [inhibitor, single point]
64 | CCOC(=O)C1=C(CNCc2ccc(Cl)cc2)NC(=O)NC1c1ccccc1 (stereo not given) | inconclusive: 20 µM [inhibitor, full curve]
65 | COc1cccc(/C=C(\C#N)c2nc3ccccc3c(=O)[nH]2)c1OC | inactive
66 | CC(C)(C)Cc1nnc(NC(=O)Cc2cccs2)s1 | inactive
67 | COc1ccc([N+](=O)[O-])cc1NS(=O)(=O)Cc1ccccc1 | inactive
68 | COc1ccc(NC(=O)c2ccco2)cc1NC(=O)c1ccc(OC(C)C)cc1 | inconclusive: 79.4 µM [inhibitor, single point]
69 | C=CCOc1cccc(C2C(C(=O)c3ccc(C)o3)=C(O)C(=O)N2c2nnc(C)s2)c1 (stereo not given) | inconclusive: 79.4 µM [inhibitor, single point]
70 | COc1ccc(CNC(=O)C(OC(=O)c2ccco2)c2ccc(F)cc2)cc1 (stereo not given) | inactive
71 | COc1ccc(C(=O)c2ccc(N(C)C)cc2)c2ccccc12 | inconclusive: 70.8 µM [inhibitor, single point]
72 | N#C/C(=C\c1ccc(O)c(O)c1)C(=O)NCCc1ccccc1 | active: 11.2 µM
73 | Cc1ccc(Cl)c(OCCN2CCCC(C)C2)c1 (stereo not given) | inconclusive: 79.4 µM [inhibitor, partial curve]
74 | N#CC1(C#N)CC(C=O)=C(N)C1(C#N)CC(=O)C12CC3CC(CC(C3)C1)C2 (stereo not given) | inconclusive: 44.7 µM [inhibitor, partial curve]
75 | COc1ccc(CNC(=O)CN(C)S(=O)(=O)c2ccc3[nH]c4c(c3c2)CCCC4)cc1 | inconclusive: 39.8 µM [inhibitor, full curve]
